From PubChem BioAssay AID1508624 (National Center for Advancing Translational Sciences (NCATS), 2021)
In all, about 48,000 compounds went through this assay and about 120 (0.25%) were called active. About 4% were inconclusive and are not listed. Calls come from the whole dose curve; as a rule, active = well fitted activation curve with a large enough effect; inconclusive = small, poorly fitted or top-dose-only effect, or another doubt; inactive = no such curve, though single readings can be large or run the other way. This is one part of the list.

Assay: Primary qHTS for Identification of Small Molecule Activators of Huntingtin-Antisense Promoter Activity; note: nearly all actives have a fitted effect of over 55% in size
Conditions: HEK293 HTT-AS promoter firefly luciferase reporter, 24 h; series mostly up to 57.5 µM; activity change, positive = activation: at the top concentration
How it was run: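 Luminescence was read after Dual-Glo reagent and a 10 min room-temperature incubation. Values were normalized to vehicle (0% activity) and zero RLU (-100% activity). Reporter HEK293 cells had been exposed to compounds (up to 57.5 uM final) for 24 h.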

Activity change, positive = activation, inactive:
Cc1ccc(-n2cnnn2)cc1S(N)(=O)=O -4.47%
COc1ccc2[nH]cc(CCN=C(NC(=O)c3ccccc3OC)Nc3nc(C)cc(C)n3)c2c1 -51.3%
CCc1cc2c(cc3c(=O)n(CC(=O)NCCc4ccc(OC)cc4OC)nc(CC)n32)s1 -5.1%
COC(=O)Cn1c(SCCOc2ccccc2OC)nc2ccccc21 4%
Cc1cc2[nH]c(=O)c(=O)[nH]c2cc1S(=O)(=O)N1CCN(c2cccc(Cl)c2)CC1 -7%
Cc1ccc(NC(=O)c2ccc(NC(=O)CCS(=O)(=O)c3cccs3)cc2)cc1F -42.6%
COc1cccc(Cn2cc(C(=O)c3ccc(Cl)cc3)c(=O)c3ccccc32)c1 -24.3%
Cc1ccccc1Nc1c(-c2ccc(N3CCOCC3)cc2)nc2ccc(Br)cn12 21.7%
CCSc1ncc(Cl)c(C(=O)Nc2cccc(Cl)c2)n1 -12.2%
Cc1nc2cccnc2n1C1CCN(C(=O)Nc2ccc(Cl)cc2)CC1 10.1%
COC(=O)Cc1c(C)c2ccc3c(c2oc1=O)CN(Cc1ccccc1Cl)CO3 -24.4%
CCc1c(C)sc2c1CCN(Cc1ccccc1F)C2c1ccccc1 (stereo not drawn) -28.2%
CCOc1ccc(-c2c(C)nn3c(C)c(C(=O)NCCc4ccc(C)cc4)cnc23)cc1OCC -18.7%
COc1ccc(NC(=O)C2CCN(S(=O)(=O)c3c(C)noc3/C=C/c3cccs3)CC2)cc1Cl -17.5%
O=C(NCCSc1c[nH]c2ccccc12)c1ccccc1Cl -16.1%
Cc1cc(C)cc(NC(=O)C(Cc2ccccc2)NS(=O)(=O)c2ccc3c(c2)CCC(=O)N3)c1 (stereo not drawn) -23.1%
CCOc1ccccc1NC(=O)C(=O)Nc1ccc2nc3n(c(=O)c2c1)CCCCC3 -42.3%
CN(C(Cc1ccc(OS(=O)(=O)c2cccc3cnccc23)cc1)C(=O)N1CCN(c2ccccc2)CC1)S(=O)(=O)c1cccc2cnccc12 (stereo not drawn) -21.3%
O=C(c1ccccc1)N1c2nc(-c3ccco3)nn2C2(CCCCC2)[C@@H]2CCCC[C@@H]21 -16.6%
Cc1ccccc1OCc1ccc(-c2nc(C#N)c(N3CCN(c4cccc(Cl)c4)CC3)o2)o1 -12%
Cc1cc(C)c(NC(=O)C2CCCN(S(=O)(=O)c3c(C)noc3C)C2)c(C)c1 (stereo not drawn) -8.6%
Cc1ccc(CNC(=O)C(=O)NCC(c2ccc3c(c2)OCO3)N2CCOCC2)cc1 (stereo not drawn) -15.1%
CCOC(=O)C1(C)C=C(Nc2cccc(C(=O)O)c2)C(=O)N1c1ccccc1 (stereo not drawn) 19.2%
Cc1ccc2c(=O)cc(C(=O)Nc3c(C)n(C)n(-c4ccccc4)c3=O)oc2c1 5.51% [at 11.5 µM, percent change from vehicle, -100% = no light]
COc1cc(NC(=O)CSc2nc3nc(C)c(Cc4ccccc4Cl)c(C)n3n2)cc(OC)c1 -2.29%
COc1ccccc1N1CCN(C(=O)C2CCCN(S(=O)(=O)c3ccc4c(c3)CCCN4C(C)=O)C2)CC1 (stereo not drawn) -27.7%
CCCOc1ccc(CNC(=O)C(NS(=O)(=O)c2cccs2)C(C)C)cc1 (stereo not drawn) 9.96%
COc1cc(Cl)c(C)cc1NC(=O)c1cnc(N2CCCCC2)c2ccccc12 -20.1%
COc1cc2nc(SCc3ccc(C)cc3)n3nc(CCn4nc(C)cc4C)nc3c2cc1OC -0.491%
CC(C)Cn1c(-c2cccc(Br)c2)nc2ccccc21 -34.6%
COC(=O)C(CCSC)Nc1ncnc2onc(-c3ccc(F)cc3)c12 (stereo not drawn) -10.3%
O=C(CSc1nc(-c2cccc(F)c2)[nH]c1-c1ccccc1)Nc1ccc2c(c1)OCO2 -24.1%
O=C(CSc1nc2ccccc2nc1Cc1ccc(Cl)cc1)N1CCN(c2ccccc2)CC1 -14.8%
Cc1ccc(-n2ncc(C(=O)NCc3ccco3)c2C2CCN(C(=O)OC(C)(C)C)CC2)cc1C -33.4%
COc1cc(NC(=O)c2cc3cc4ccc(C)cc4nc3o2)cc(OC)c1OC -53.1%
CCc1ccccc1N(C)C(=O)C1CCCN(c2ncnc3c2nc2n3CCCCC2)C1 (stereo not drawn) -35.7%
Cc1c(C(=O)Nc2cc(F)ccc2F)sc2nc(-c3ccc(F)cc3)cn12 1.15%
CCCCCCOc1ccc(C2C(=O)N(C3CCCCC3)CC(=O)N2C2CCCCC2)cc1 (stereo not drawn) -6.29%
CCC(=O)N1CCc2cc(S(=O)(=O)NCCC(=O)Nc3ccc(N(CC)CC)cc3C)ccc21 -4.76%
CCN(CC)S(=O)(=O)c1ccc(C(=O)NCCSc2c(-c3ccccc3)[nH]c3ccccc23)cc1 -33.6%
O=C(c1ccc2c(c1)N(Cc1ccc(F)cc1)C(=O)c1ccccc1S2(=O)=O)N1CCCCC1 -13.8%
Cc1ccc(-c2nn3c(C)nnc3c3ccccc23)cc1S(=O)(=O)NCC(C)O (stereo not drawn) -2.9%
NC(=O)c1cc(S(=O)(=O)N2CCN(c3cccc(C(F)(F)F)c3)CC2)cs1 -13.1%
COc1cc(NC(=O)CSc2c3c(nc4ccccc24)CCC3)cc(OC)c1OC -21.4%
Cc1cccc(S(=O)(=O)c2cn(Cc3ccccc3)c3cc(N4CCCCC4)c(F)cc3c2=O)c1 -17.5%
CC[C@H](CC#N)OC(=O)N[C@@H](C)c1cccc(NC(=O)Nc2ccc(-c3cnco3)c(OC)c2)c1 -37.2%
COC(=O)c1ccccc1NS(=O)(=O)c1cc2c(cc1C)N(C)CCO2 -9.03%
CCN(CC)C(=O)c1c(-c2ccccc2)c(-c2ccccc2)nn(CC)c1=O -2.71%
COc1ccccc1N1CCN(C(=O)CN2C(=O)COc3ccc(S(=O)(=O)N4CCOCC4)cc32)CC1 -18.7%
COc1ccc(CCC(=O)NC2CC(=O)N(c3ccc(F)cc3)C2)cc1 (stereo not drawn) -12.8%
CCN(Cc1nc(-c2ccc(OC)c(OC)c2)no1)S(=O)(=O)c1ccc(OC)cc1 -26.8%
C#Cc1cccc(Nc2ncnc3cc(OCCOC)c(OCCO)cc23)c1 -36%
CN1[C@@H]2CC(OC(=O)[C@H](CO)c3ccccc3)C[C@H]1[C@@H]1O[C@@H]12 (stereo partly drawn) -28.4%
Cn1cnc2c(F)c(Nc3ccc(Br)cc3F)c(C(=O)NOCCO)cc21 -0.233%
O=C(CSc1nc(=O)n(Cc2ccccn2)c2c1CCC2)Nc1ccccc1 -26.6%
CSc1ccccc1NC(=O)CCS(=O)(=O)c1nc(-c2ccc3c(c2)OCO3)cc(C(F)(F)F)n1 -2.08%
CC(C)(C)OC(=O)N1CCC(c2c(C(=O)NC3CCCCC3)cnn2-c2ccc(F)cc2F)CC1 -17.3%
COc1cc(CNC(=O)c2cnc(SC)nc2-c2ccccc2)cc(OC)c1OC -15.3%
